Measured values reported in the supplement of paper PMC11417369.
The list shows a part of the results.

These sequences were tested on PfHDP1 homeodomain (GST-tagged) (assay: gcPBM binding intensity (ln(normalized median fluorescence intensity)); higher = stronger DNA binding).
How it was run: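 After 1 h on an Agilent 4 × 180k array of primer-extended double-stranded 36-bp intergenic genomic probes and negative controls, bound GST-tagged P. falciparum DNA-binding domains were detected with Alexa488 anti-GST antibody and scanned at 488 nm. The domains had been expressed in E. coli, and binding took place in 1× PBS with 1% milk, 0.2 mg/ml BSA, 0.5% salmon testes DNA and 0.03% Triton X-100. Binding intensity is the highest Masliner-normalised natural-log median intensity across replicate spots of either probe orientation.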

Row | Sequence | gcPBM binding intensity (ln)
1 | TTATTACATGTTACTTAACACACATCTGGTGAAATA [CACACA_site7939] | 6.56
2 | AAAATATAGTAATATATATATGTATATTATTTGTGG [CACACA_negctrl_site1590] | 6.78
3 | GGAAAGACAGTTCACAGTACCCAGTAAACTCTACGG [XGTACX_site2557] | 5.81
4 | GAAAAAATTTTATGGTGTACTTTATTTATTTATATA [XGTACX_site6323] | 6.45
5 | GATTATATTATATATTAAATATAAATATGTATTATA [TGCATGCA_negctrl_site66] | 6.15
6 | ATGTTGTGTATATATACACACATACATATATATATA [CACACA_site8461] | 8.98
7 | GAAATATTTAGACACACACACAAACATATAAATATA [CACACA_site6980] | 7.03
8 | AAAAAAAATTAAAATAAATTAAAAAGTAATTATATA [GTGCAC_negctrl_site615] | 6.06
9 | AATGAGAAGGACTGCACACTAAAATGGAAGGAGAAA [CACACA_site1575] | 6.97
10 | AATGGAAATGTAAAATGTACAGGACGCACACACATA [XGTACX_site7788] | 6.7
11 | TCAAAGCACACATACACACACATATAGATTTATATA [CACACA_site6272] | 6.85
12 | TCTTCATAAAAATAAAGTACATTATATATATAAATA [XGTACX_site3775] | 6.37
13 | TAAATAAATATATATTCACACACAAACATATATATA [CACACA_site9332] | 6.58
14 | ATTAATATTATTAGAAGTACTAATAGTAGTATAACT [XGTACX_site1325] | 6.8
15 | TTTTTATTATTCTTAAGGATATAACAAAAAAGAAAA [XGTACX_negctrl_site584] | 5.98
16 | TTCTAAAAAAATAAAATTATCAAGGTTTTTAAACGT [CACACA_negctrl_site308] | 6.41
17 | TATAAATTTAAAATGACACACACTAATATTATTTAA [CACACA_site8334] | 6.79
18 | GGGTCAAGTAAGCTGTTCCTCTTTTTCTTTCTCACT [GTGCAC_negctrl_site473] | 6.6
19 | TGTCTTTAAATTTCTCAACACACAGTTATAAAAAAT [CACACA_site8930] | 6.65

Row | Sequence | gcPBM binding intensity (ln)
20 | ATACGATTGAAACATTGTACATGAATATAAAAAAAT [XGTACX_site5704] | 6.8
21 | TTGTATATATATGGAAAAATATATATATATATATAT [GTGCAC_negctrl_site591] | 9.43
22 | TTTATTTATAGACACACACACAAAAAAAAAAAAAAA [CACACA_site7280] | 6.25
23 | CATTTATATTATAAATGTACAAAGTTCGTTTGTTCC [XGTACX_site1305] | 6.24
24 | TTTTTTTTTTTTTTTATAAAAGATAATTTTTTTTTA [CACACA_negctrl_site133] | 6.43
25 | AAAAAAACATAAAATACACACAACCTTAAGAATGTA [CACACA_site3293] | 6.53
26 | TTATAAAATATATATACATGCACAAAATTATAAGTA [TGCATGCA_site294] | 8.27
27 | AATCAACATTTTTTTTGCTATTTTTTTTTTTAATTA [CACACA_negctrl_site891] | 6.31
28 | ATGAAAAAAAGACATGCATGTAAATATAAATTGCTT [TGCATGCA_site504] | 6.68
29 | CTCATTTTGTTAATGGTGCAAAAAAAAAAAAAAAAA | 9.82
30 | TATTTAAAACTATACACATGCATTATATAAAGATAT [TGCATGCA_site702] | 6.45
31 | AGTAAGAGGCATTAAGCATGCATATTATTATAAGCA [TGCATGCA_site237] | 6.29
32 | CATTATAAGAGACACACACACATATATAAATATGTA [CACACA_site6621] | 6.53
33 | AAAATTTATTATCTATATAATAATATGAAACAAAAC [GTGCAC_negctrl_site731] | 6.84
34 | TTTCATTTTTGAAGGTGTACTTAAAATTTATGTAAT [XGTACX_site6671] | 6.29
35 | TAAATACATTTATATACACACCTATATATATATATA [CACACA_site5137] | 9.11
36 | TCCAAATGAAAAAATTGTACATATTTTATCATATAT [XGTACX_site6159] | 6.39
37 | TATAATTTAAAATACACACACATATATATAATATAT [CACACA_site2000] | 6.76
38 | ATAAGAAATTTCATACGTACATAAATAAATATATAT [XGTACX_site2932] | 6.55

Row | Sequence | gcPBM binding intensity (ln)
39 | AAAAAATTTATAAAAGCACACAAAATAAAAAAAAAT [CACACA_site8420] | 6.86
40 | GTATGATGTGAACATTGTACGAATGAATATATCTAA [XGTACX_site3789] | 6.18
41 | ATATAAGTATACACATGTACATATTTCTTATGTATA [XGTACX_site2854] | 6.72
42 | TATAAAGACACGTACACACACTAAGTATATCCAATA [CACACA_site6855] | 6.75
43 | AAAATGTTAAATATTAAATATGAAACAAAAAAAAAA [GTGCAC_negctrl_site211] | 6.38
44 | TATTGTAAAGTGTCATTATTACGTTATATTATATAT [CACACA_negctrl_site98] | 6.3
45 | TATAATATAAAATATGCACACATTGGAATGGGAGAA [CACACA_site3746] | 9.33
46 | GACAATATTAAAACATGTACATGCATTTTATGAATA [XGTACX_site553] | 6.47
47 | TAAAAAAAAGGAAATACATGCATCTACATATATATA [TGCATGCA_site500] | 6.7
48 | ATATAGGTAATAATAATACACACGGTGAAATATAGA [CACACA_site4040] | 6.82
49 | AAAAAAAAAATATATATATATATATAATATATATAT [TGCATGCA_negctrl_site329] | 8.26
50 | ATATATTTCATTTTTGTACACACAACGTTGGAGGGT [CACACA_site8999] | 6.94
51 | AAAAACTAACTGTATTGTACTCTCTTATAAATTCAC [XGTACX_site8967] | 5.93
52 | CTAGGAAATTATATGGGTACTCATATTCATAAAAAA [XGTACX_site1846] | 6.19
53 | AAATATTTGGAGAAATGTACATATTATAAATATATT [XGTACX_site6885] | 6.57
54 | AAAAAAAAAAAAAAGGTGCAAATAAATTAACCTTAT | 9.03
55 | AAAAAAAACGCACATACACACACACCCATATATATA [CACACA_site9118] | 7.99
56 | AAATGTTAAAATGACAGTACATATATAAAAAAAAAA [XGTACX_site3936] | 6.49
